# Results from the supplement of paper PMC8728848.
# Some of the results follow.
# B1: TREM-2 (Mus musculus), Q99NH8 (protein)
# chain: MGPLHQFLLLLITALSQALNTTVLQGMAGQSLRVSCTYDALKHWGRRKAWCRQLGEEGPCQRVVSTHGVWLLAFLKKRNGSTVIADDTLAGTVTITLKNLQAGDAGLYQCQSLRGREAEVLQKVLVEVLEDPLDDQDAGDLWVPEESSSFEGAQVEHSTSRNQETSFPPTSILLLLACVLLSKFLAASILWAVARGRQKPGTPVVRGLDCGQDAGHQLQILTGPGGT
# Legend:
# Experiment in all cases: glycan array binding signal (z-score within array); higher = stronger binding
# Conditions in all cases: glycan notation: IUPAC condensed, linker removed
# [1] = molecular target: Neu5Ac(a2-3)Gal(b1-4)GlcNAc6S
# Summary of the method: (§1)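 Glycan array data were curated from 3228 arrays in the Consortium for Functional Glycomics database and kept only where the protein sequence was available. Glycan names were converted to IUPAC-condensed notation, and columns mapping to the same glycan were averaged. The binding signal is a within-array Z-score, averaged across arrays of the same protein sequence at different concentrations or buffers and across linkers. Negative Z-scores can be read as non-binding.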
# [2] = molecular target: Neu5Ac(a2-3)Gal(b1-4)[Fuc(a1-3)]GlcNAc
# Summary of the method: as §1
# [3] = molecular target: Neu5Ac(a2-3)Gal(b1-4)[Fuc(a1-3)]GlcNAc(b1-3)Gal
# Summary of the method: as §1
# [4] = molecular target: Neu5Ac(a2-3)Gal(b1-4)[Fuc(a1-3)]GlcNAc(b1-3)Gal(b1-4)GlcNAc
# Summary of the method: as §1
# [5] = molecular target: Neu5Ac(a2-3)Gal(b1-4)[Fuc(a1-3)]GlcNAc(b1-3)Gal(b1-4)[Fuc(a1-3)]GlcNAc(b1-3)Gal(b1-4)[Fuc(a1-3)]GlcNAc
# Summary of the method: as §1
# [6] = molecular target: Neu5Ac(a2-3)Gal(b1-4)[Fuc(a1-3)]GlcNAc6S
# Summary of the method: as §1
# [7] = molecular target: Neu5Ac(a2-3)Gal6S(b1-4)GlcNAc
# Summary of the method: as §1
# [8] = molecular target: Neu5Ac(a2-3)Gal6S(b1-4)[Fuc(a1-3)]GlcNAc
# Summary of the method: as §1
# Neu5Ac(a2-3)GalNAc = molecular target: Neu5Ac(a2-3)GalNAc
# Summary of the method: as §1
# [9] = molecular target: Neu5Ac(a2-3)GalNAc(b1-4)GlcNAc
# Summary of the method: as §1
# [10] = molecular target: Neu5Ac(a2-3)[GalNAc(b1-4)]Gal(b1-4)Glc
# Summary of the method: as §1
# [11] = molecular target: Neu5Ac(a2-3)[GalNAc(b1-4)]Gal(b1-4)GlcNAc
# Summary of the method: as §1
# [12] = molecular target: Neu5Ac(a2-3)[Neu5Ac(a2-6)]GalNAc
# Summary of the method: as §1
# Neu5Ac(a2-6)Gal = molecular target: Neu5Ac(a2-6)Gal
# Summary of the method: as §1
# Neu5Ac(a2-6)Gal(b1-4)Glc = molecular target: Neu5Ac(a2-6)Gal(b1-4)Glc
# Summary of the method: as §1
# [13] = molecular target: Neu5Ac(a2-6)Gal(b1-4)GlcNAc
# Summary of the method: as §1
# [14] = molecular target: Neu5Ac(a2-6)Gal(b1-4)GlcNAc(b1-3)Gal(b1-4)GlcNAc
# Summary of the method: as §1
# [15] = molecular target: Neu5Ac(a2-6)Gal(b1-4)GlcNAc(b1-3)Gal(b1-4)[Fuc(a1-3)]GlcNAc(b1-3)Gal(b1-4)[Fuc(a1-3)]GlcNAc
# Summary of the method: as §1
# [16] = molecular target: Neu5Ac(a2-6)Gal(b1-4)GlcNAc6S
# Summary of the method: as §1
# Neu5Ac(a2-6)GalNAc = molecular target: Neu5Ac(a2-6)GalNAc
# Summary of the method: as §1
# [17] = molecular target: Neu5Ac(a2-6)GalNAc(b1-4)GlcNAc
# Summary of the method: as §1
# Neu5Ac(a2-8)Neu5Ac = molecular target: Neu5Ac(a2-8)Neu5Ac
# Summary of the method: as §1
# [18] = molecular target: Neu5Ac(a2-8)Neu5Ac(a2-3)Gal(b1-4)Glc
# Summary of the method: as §1
# [19] = molecular target: Neu5Ac(a2-8)Neu5Ac(a2-3)[GalNAc(b1-4)]Gal(b1-4)Glc
# Summary of the method: as §1
# [20] = molecular target: Neu5Ac(a2-8)Neu5Ac(a2-8)Neu5Ac
# Summary of the method: as §1
# [21] = molecular target: Neu5Ac(a2-8)Neu5Ac(a2-8)Neu5Ac(a2-3)Gal(b1-4)Glc
# Summary of the method: as §1
# [22] = molecular target: Neu5Ac(a2-8)Neu5Ac(a2-8)Neu5Ac(a2-3)[GalNAc(b1-4)]Gal(b1-4)Glc
# Summary of the method: as §1
# [23] = molecular target: Neu5Ac(a2-8)Neu5Ac(a2-8)Neu5Ac(a2-8)Neu5Ac(a2-3)[GalNAc(b1-4)]Gal(b1-4)Glc
# Summary of the method: as §1
# Neu5Ac(b1-6)GalNAc = molecular target: Neu5Ac(b1-6)GalNAc
# Summary of the method: as §1
# [24] = molecular target: Neu5Ac(b2-6)Gal(b1-4)GlcNAc
# Summary of the method: as §1
# [25] = molecular target: Neu5Ac9Ac(a2-6)Gal(b1-4)GlcNAc
# Summary of the method: as §1
# [26] = molecular target: Neu5Gc(a2-3)Gal(b1-3)GlcNAc
# Summary of the method: as §1
# [27] = molecular target: Neu5Gc(a2-3)Gal(b1-3)[Fuc(a1-4)]GlcNAc
# Summary of the method: as §1
# Neu5Gc(a2-3)Gal(b1-4)Glc = molecular target: Neu5Gc(a2-3)Gal(b1-4)Glc
# Summary of the method: as §1
# [28] = molecular target: Neu5Gc(a2-3)Gal(b1-4)GlcNAc
# Summary of the method: as §1
# [29] = molecular target: Neu5Gc(a2-3)Gal(b1-4)[Fuc(a1-3)]GlcNAc
# Summary of the method: as §1
# [30] = molecular target: Neu5Gc(a2-6)Gal(b1-4)GlcNAc
# Summary of the method: as §1
# Neu5Gc(a2-6)GalNAc = molecular target: Neu5Gc(a2-6)GalNAc
# Summary of the method: as §1
binder,measurement,setting,value
B1,glycan array binding signal (z-score),[1],1.52
same,glycan array binding signal (z-score),[2],-0.217
same,glycan array binding signal (z-score),[3],-0.393
same,glycan array binding signal (z-score),[4],-0.043
same,glycan array binding signal (z-score),[5],-0.235
same,glycan array binding signal (z-score),[6],0.259
same,glycan array binding signal (z-score),[7],0.56
same,glycan array binding signal (z-score),[8],0.844
same,glycan array binding signal (z-score),Neu5Ac(a2-3)GalNAc,-0.038
same,glycan array binding signal (z-score),[9],-0.226
same,glycan array binding signal (z-score),[10],-0.373
same,glycan array binding signal (z-score),[11],-0.273
same,glycan array binding signal (z-score),[12],0.289
same,glycan array binding signal (z-score),Neu5Ac(a2-6)Gal,-0.353
same,glycan array binding signal (z-score),Neu5Ac(a2-6)Gal(b1-4)Glc,-0.292
same,glycan array binding signal (z-score),[13],-0.332
same,glycan array binding signal (z-score),[14],-0.403
same,glycan array binding signal (z-score),[15],-0.319
same,glycan array binding signal (z-score),[16],1.03
same,glycan array binding signal (z-score),Neu5Ac(a2-6)GalNAc,-0.359
same,glycan array binding signal (z-score),[17],-0.226
same,glycan array binding signal (z-score),Neu5Ac(a2-8)Neu5Ac,-0.304
same,glycan array binding signal (z-score),[18],-0.183
same,glycan array binding signal (z-score),[19],-0.193
same,glycan array binding signal (z-score),[20],-0.266
same,glycan array binding signal (z-score),[21],-0.398
same,glycan array binding signal (z-score),[22],-0.283
same,glycan array binding signal (z-score),[23],-0.306
same,glycan array binding signal (z-score),Neu5Ac(b1-6)GalNAc,-0.164
same,glycan array binding signal (z-score),[24],-0.237
same,glycan array binding signal (z-score),[25],-0.265
same,glycan array binding signal (z-score),[26],-0.366
same,glycan array binding signal (z-score),[27],-0.279
same,glycan array binding signal (z-score),Neu5Gc(a2-3)Gal(b1-4)Glc,-0.315
same,glycan array binding signal (z-score),[28],-0.296
same,glycan array binding signal (z-score),[29],-0.273
same,glycan array binding signal (z-score),[30],-0.342
same,glycan array binding signal (z-score),Neu5Gc(a2-6)GalNAc,-0.368
